# Data from PubChem BioAssay AID504832 (National Center for Advancing Translational Sciences (NCATS), 2011).
# The whole screen tested about 310,000 compounds, of which about 18,000 (5.8%) were called active. Inconclusive means that the source gave no clear call. Such entries were picked first, then a sample of the others. Calls come from the whole dose curve; as a rule, active = well fitted inhibition curve with a large enough effect; inconclusive = small, poorly fitted or top-dose-only effect, or another doubt; inactive = no such curve, though single readings can be large or run the other way. No potency is given beside an inconclusive call; the fits are too rough.
# Assay: Primary qHTS for delayed death inhibitors of the malarial parasite plastid, 48 hour incubation
# Details: P. falciparum luciferase growth in erythrocytes; series mostly up to 28.7 µM
# Summary of the method: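 First compound was added to culture medium, then infected red cells at 0.1% parasitemia and 2% hematocrit (final). After incubation at 37 C under 5% CO2, luciferase detection reagent was dispensed and light output recorded.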
# Potency is the fitted concentration of half-maximal effect; tags give direction and shape of the fitted curve.
row,SMILES,Potency
1,Cc1nn(-c2ccccc2)c(C)c1C(=O)OCC(=O)NC(=O)NC1CCCC1,inactive
2,CN(/C(=N/S(=O)(=O)c1cccs1)c1ccccc1)c1ccccc1,inactive
3,O=C1c2cccc3cccc(c23)N1Cc1ccc(F)cc1,"inconclusive [inhibitor, full curve, poor fit]"
4,O=C(CN1CCN(Cc2ccc(Cl)cc2)CC1)N1CCc2ccccc21,inactive
5,CCOC(=O)c1c(NC(=O)CSc2nnnn2CC)sc(C)c1C,"inconclusive [inhibitor, single point]"
6,CC(SCc1nc2sc3c(c2c(=O)[nH]1)CCCC3)C(=O)Nc1ccccn1 (stereo unspecified),"inconclusive [inhibitor, single point]"
7,CCOC(=O)CSc1nc2cc(C(=O)NCc3ccco3)ccc2c(=O)n1C1CCCCC1,active: 5.86 µM
8,CCOCCCn1c(=N)c(C(N)=S)cc2c(=O)n3cccc(C)c3nc21,"inconclusive [inhibitor, full curve]"
9,O=S(=O)(c1ccccc1)n1ccc2ccccc21,"inconclusive [inhibitor, partial curve, poor fit]"
10,COc1ccccc1N(CC(=O)NCCN1CCOCC1)S(=O)(=O)c1ccccc1,inactive
11,Cc1occc1C(=O)NCc1ccccc1,inactive
12,COc1ccc(C(=O)/C=C/Nc2ccc(NC(C)=O)cc2)cc1OC,"inconclusive [inhibitor, single point]"
13,Cc1ccc(CCNC(=O)c2ccc3nc4ccccc4c(=O)n3c2)cc1,inactive
14,Cc1ccsc1CN1CC(=O)N(c2c(C)cccc2C)C1=S,"inconclusive [inhibitor, partial curve, poor fit]"
15,CCOc1ccc(S(=O)(=O)N2CCOCC2)cc1NC(=O)CSC(=S)N1CCCC1,"inconclusive [inhibitor, partial curve, poor fit]"
16,CC[C@]12CCCN3CCc4c(n(c5ccccc45)[C@@](O)(C(=O)OC)C1)[C@@H]32,inactive
17,CCOC(=O)c1cc(CC)sc1NC(=O)C1CC(=O)NN1Cc1ccccc1 (stereo unspecified),"inconclusive [inhibitor, single point]"
18,CCOc1ccccc1NC(=O)c1oc2ccccc2c1NC(=O)C1CCCO1 (stereo unspecified),"inconclusive [inhibitor, single point]"
19,CCc1nc2ccc(N3CCN(C)CC3)cc2nc1CC,inactive
20,CC(OC(=O)c1ccc2ccccc2c1)C(=O)N(C)Cc1ccccc1 (stereo unspecified),"inconclusive [inhibitor, single point]"
21,CS(=O)(=O)N(CC(=O)Nc1ccc2c(c1)OCCO2)c1ccc2c(c1)OCO2,inactive
22,O=C(CN1CCc2ccccc2C1)Nc1cccc(S(=O)(=O)N2CCCC2)c1,"inconclusive [inhibitor, full curve, poor fit]"
23,COc1cccc(CNC(=O)CCCn2c(=S)[nH]c3cc4c(cc3c2=O)OCO4)c1,"inconclusive [inhibitor, single point]"

row,SMILES,Potency
1,Cc1cc(C(=O)CSc2nnc(-c3ccco3)o2)c(C)n1CC1COc2ccccc2O1 (stereo unspecified),active: 10.4 µM
2,CCc1nc(N=C(N)N)nc2ccccc12,active: 3.29 µM
3,COc1cccc(-n2c(=S)[nH]c3ccccc3c2=O)c1,"inconclusive [inhibitor, partial curve, poor fit]"
4,Clc1ccc(CN2CCN(c3ncccn3)CC2)cc1Cl,"inconclusive [inhibitor, full curve, poor fit]"
5,CC(OC(=O)CNC(=O)c1sc2ccccc2c1Cl)C(=O)NC1(C#N)CCCCC1 (stereo unspecified),"inconclusive [inhibitor, single point]"
6,C/C(=N\Nc1cc(C)nc(NCc2ccccc2)n1)c1ccc([N+](=O)[O-])cc1,"inconclusive [inhibitor, full curve]"
7,Cc1c(OC(C)C(=O)NCCCN2CCCC2=O)ccc2c3c(c(=O)oc12)CCCC3 (stereo unspecified),"inconclusive [inhibitor, partial curve, poor fit]"
8,c1nc2nc3c(c(N4CCOCC4)n2n1)CCCC3,inactive
9,CCONC(=NC)c1nonc1N,inactive
10,O=C1CCCC/C1=C\Nc1ccc(O)cc1,"inconclusive [inhibitor, single point]"
11,CCc1nc2ccc(C)cc2c(C(=O)NC2CCCCC2C)c1C (stereo unspecified),inactive
12,Cc1cccc([N+](=O)[O-])c1NC(=O)CN(Cc1ccccc1)Cc1ccccc1,"inconclusive [inhibitor, full curve, poor fit]"
13,O=C(NCCN1CCOCC1)C(=O)NCc1ccc2c(c1)OCO2,inactive
14,Cc1nnc(SCC2=C(C(=O)O)N3C(=O)C(NC(=O)Cc4ccccc4)C3SC2)s1 (stereo unspecified),inactive
15,O=C1C(=O)N(CCCn2ccnc2)C(c2ccc(Cl)cc2)/C1=C(\O)c1ccc2c(c1)OCCO2 (stereo unspecified),inactive
16,CC(=O)Nc1ccc(S(=O)(=O)N2CCC(C(=O)NCCC(=O)Nc3nccs3)CC2)cc1,"inconclusive [inhibitor, single point]"
17,O=C(C(=O)N1CCN(c2ccc([N+](=O)[O-])cc2)CC1)c1cn(CC(=O)N2CCOCC2)c2ccccc12,inactive
18,Cc1ccc(C2(O)CN(c3ccccc3C)C3=[N+]2CCS3)cc1 (stereo unspecified),"inconclusive [inhibitor, single point]"
19,CC(=O)N1c2ccc(S(=O)(=O)N3CCC(C(=O)Nc4cccc(C)n4)CC3)cc2CC1C (stereo unspecified),"inconclusive [inhibitor, partial curve, poor fit]"
20,Cc1ccc(S(=O)(=O)NCC(=O)NCC(=O)NC(C)c2ccccc2Br)cc1C (stereo unspecified),inactive
21,COc1cccc(C(=O)NCCSc2ccc(Br)cc2)c1,"inconclusive [inhibitor, single point]"
22,CCC(=O)N1CCc2cc(Br)cc(S(=O)(=O)CC(=O)OC)c21,"inconclusive [inhibitor, full curve]"
23,CC(OC(=O)c1cccc([N+](=O)[O-])c1)C(=O)N1CCc2ccccc21 (stereo unspecified),"inconclusive [inhibitor, single point]"
